Test results taken from PubChem BioAssay AID759 (NMMLSC, 2007).
The campaign covered roughly 190,000 compounds. About 270 (0.14%) were called active. The shares of active, inactive and inconclusive entries below differ from those in the screen.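 The calls were made as follows: active = GTP binding activity at least 20% away from the 100% baseline, either lowered as inhibitor or raised as activator; inconclusive = flagged as likely green fluorescent, judged across all proteins in the well; inactive = the rest.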

Each compound was assayed against GTPase HRas (Homo sapiens) (UniProt P01112) (assay: HRas wt fluorescent GTP binding changes, either direction – biochemical, wildtype, bead-based flow cytometry, multiplex, primary screen (AID 759;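 also: 0% = unlabeled GTP competition control and 100% = no-compound control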)). Settings: GST-Ras wt beads, Bodipy-FL-GTP binding, at 10 µM, actives lie on both sides.
UniProt P01112, sequence (P01112 whole entry, looked up): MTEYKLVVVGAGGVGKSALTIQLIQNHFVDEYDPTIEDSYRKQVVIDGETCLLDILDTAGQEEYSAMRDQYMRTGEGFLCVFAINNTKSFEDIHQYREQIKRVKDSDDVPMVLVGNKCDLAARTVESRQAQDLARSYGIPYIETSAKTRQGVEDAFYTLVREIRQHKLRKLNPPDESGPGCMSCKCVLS
`Cc1ccc(C)n1-c1ccc(C(=O)NN=C2CCCC2)cc1` was tested, and the GTP binding activity was inconclusive: 111%. For `CCc1ccccc1OCC(=O)Nc1nc(-c2cccnc2)cs1`, the GTP binding activity was inactive: 95%. With `COC(=O)[C@H](C)NC(=O)Nc1ccc(Oc2ccccc2)cc1` the GTP binding activity was inconclusive: 109%. In the case of `COc1ccc(C2=Nn3c(nnc3-c3ccccn3)SC2)cc1OC`, the GTP binding activity is reported as inconclusive: 78%. `CCOc1ccc(-c2cc(C(=O)Nc3ccc4c(c3)OCCO4)c3ccccc3n2)cc1` was tested, and the GTP binding activity was inconclusive: 95%. `CN(C(=O)Cn1cccc1C1=NC(c2ccccc2)CO1)c1ccccc1` (configuration not stated) was tested, and the GTP binding activity was inactive: 99%. In the case of `Cn1c(=S)n(/N=C/c2ccc3c(c2)OCO3)c2ccccc21`, the GTP binding activity is reported as inconclusive: 103%. `Cc1nnc(SCc2nc3ccccc3s2)n1-c1ccccc1` was tested, and the GTP binding activity was inconclusive: 103%. With `O=c1[nH]c2ccc(Cl)cc2c(O)c1Cc1ccccc1` the GTP binding activity was inconclusive: 90%. `COc1ccc(OCCSc2nc(N)cc(N)n2)cc1` was tested, and the GTP binding activity was inconclusive: 91%. With `Cc1ccc(NC(=O)CN2C(=O)NC3(CCc4ccccc43)C2=O)cc1Cl` (configuration not stated) the GTP binding activity was inconclusive: 102%. For `COc1ccccc1CN1CCNC(=O)C1CC(=O)NCc1c(C)n[nH]c1C` (configuration not stated), the GTP binding activity was inconclusive: 102%. With `CCC(C)N1C(=O)/C(=C/c2c(NCCCOC(C)C)nc3c(C)cccn3c2=O)SC1=S` (configuration not stated) the GTP binding activity was inconclusive: 218%. With `O=C(c1ccncc1)c1ccc([N+](=O)[O-])cc1` the GTP binding activity was inactive: 94%. With `COCCNc1ncnc2nc[nH]c12` the GTP binding activity was inconclusive: 106%. With `Cc1cc(C)n(CCCNC(=O)c2ccc(S(=O)(=O)NCc3ccco3)cc2)n1` the GTP binding activity was inconclusive: 102%. In the case of `Cc1ccc(-c2nnc(SCC(=O)Nc3nccs3)n2N)cc1`, the GTP binding activity is reported as inactive: 98%. For `COc1cc(NC(=O)CC2NCCNC2=O)cc(OC)c1` (configuration not stated), the GTP binding activity was inactive: 99%. With `O=S(=O)(c1cccc2cccc(Cl)c12)N1CCCC1` the GTP binding activity was inconclusive: 97%. For `C=CCN(CC=C)S(=O)(=O)c1ccc(C(=O)Nc2sc3c(c2C(N)=O)CCCCC3)cc1`, the GTP binding activity was inactive: 103%. With `O=C1CCCN1c1ccc(S(=O)(=O)Oc2cccc(Cl)c2)cc1[N+](=O)[O-]` the GTP binding activity was inconclusive: 104%. In the case of `CNC(=O)c1cc(C(=O)c2ccccc2C(F)(F)F)c[nH]1`, the GTP binding activity is reported as inconclusive: 91%. `Nc1[nH]n2c(=O)c3c(nc2c1N=Nc1ccc(Cl)cc1)CCCC3` was tested, and the GTP binding activity was inactive: 86%. `Cn1c(CNC(=O)c2ccc(Cl)c(Cl)c2)nnc1SCC(=O)Nc1sc2c(c1C#N)CCCC2` was tested, and the GTP binding activity was inactive: 102%. In the case of `Cc1[nH]nc2c1C(c1ccsc1)C1=C(CC(C)(C)CC1=O)N2` (configuration not stated), the GTP binding activity is reported as inactive: 96%. For `COc1cc(OC)c(/C=N/NC(N)=S)cc1Br`, the GTP binding activity was inconclusive: 96%. With `C=CCn1c(SCc2nnc(-c3ccccc3)o2)nnc1C(O)c1ccccc1` (configuration not stated) the GTP binding activity was inconclusive: 102%. With `CCOC(=O)c1c2ccc(OCC(=O)N/N=C/c3ccc(C)cc3)cc2n2ccccc12` the GTP binding activity was inconclusive: 91%. With `CC(C)[C@H](NC(N)=O)C(=O)Nc1ccc(F)c(Cl)c1` the GTP binding activity was inconclusive: 91%. For `COc1ccc(-c2nc(NC(=O)Cn3cnnn3)sc2C)cc1`, the GTP binding activity was inconclusive: 94%. In the case of `CCN(C(=O)CSc1nc2ccccc2c(=O)n1C(C)COC)C1CCS(=O)(=O)C1` (configuration not stated), the GTP binding activity is reported as inactive: 98%. In the case of `CC(C)CCN1CCN(Cc2ccc(N3CCNC3=O)cc2)CC1CCO` (configuration not stated), the GTP binding activity is reported as inactive: 96%. `N#C/C(=C/c1ccc(N2CCCCCC2)o1)c1ccc(Cl)cc1` was tested, and the GTP binding activity was inconclusive: 121%. With `CC(C)CCN1CCN(Cc2cnc(N3CCCC3)s2)CC1CCO` (configuration not stated) the GTP binding activity was inactive: 99%. For `CCN(CC)S(=O)(=O)c1cc([N+](=O)[O-])ccc1N=Nc1c(O)[nH]c2ccccc12`, the GTP binding activity was inconclusive: 135%. `O=C(C1CC1)N1CCc2cc(Br)cc(S(=O)(=O)NCCCN3CCCC3)c21` was tested, and the GTP binding activity was inactive: 107%. `CSc1nnc(-c2cc(Br)ccc2N=Cc2c(C)[nH]n(-c3ccccc3)c2=O)c(=O)[nH]1` was tested, and the GTP binding activity was inactive: 85%. With `CC1(C)Cc2c(oc3ncn4ncnc4c23)CO1` the GTP binding activity was inconclusive: 107%. `COc1ccccc1CN1C[C@@H]2C[C@@H](c3ccc(C)c(C)c3)N3CCC[C@@]23C1=O` was tested, and the GTP binding activity was inconclusive: 94%. `CN(C)/C=N/c1nc2nccc(-c3cccs3)n2n1` was tested, and the GTP binding activity was inconclusive: 91%. `CC(C)(C)C(=O)OCC1OC(n2cnc(C(N)=O)n2)C(O)C1O` (configuration not stated) was tested, and the GTP binding activity was inactive: 110%. `CCN(CC)c1ccc(/C=C(\C#N)c2nc(-c3cccs3)c(NC(C)=O)s2)cc1` was tested, and the GTP binding activity was inconclusive: 139%. For `CCCCn1c(N)c(N(CC)C(=O)/C=C/c2ccco2)c(=O)[nH]c1=O`, the GTP binding activity was inactive: 99%. For `CSc1nc2nc3c(cc2c(=O)n1-c1ccccc1)COC(C)(C)C3`, the GTP binding activity was inconclusive: 94%. For `O=C(CN1CCCCC1)N1CCCc2ccccc21`, the GTP binding activity was inactive: 103%. For `CCc1nc(N)c(C#N)c(-c2ccc(F)cc2)c1C`, the GTP binding activity was inconclusive: 103%. `CCOc1cc(/C=C(/C#N)c2nc3ccccc3[nH]2)ccc1OCc1ccc(C(=O)O)o1` was tested, and the GTP binding activity was active: 76%. With `COc1ccc(C2=Nn3c(nnc3-c3ccco3)SC2)cc1` the GTP binding activity was inconclusive: 79%. In the case of `COc1ccc(C)cc1N(CC(=O)N1CCc2ccccc2C1)S(C)(=O)=O`, the GTP binding activity is reported as inconclusive: 96%. In the case of `CSc1nc(C)cc(SCC(=O)N/N=C/c2ccccc2)n1`, the GTP binding activity is reported as inconclusive: 88%. In the case of `CC(C)(C)NC(=O)COc1ccc(CNCc2ccccn2)cc1`, the GTP binding activity is reported as inconclusive: 93%. `COc1cc(-c2c(C#N)c(=O)[nH]c3c2c(C)nn3-c2ccccc2)ccc1O` was tested, and the GTP binding activity was inconclusive: 91%. `CC(C)(C)N(NC(=O)Nc1ccc(Cl)c(Cl)c1)C(=O)c1ccccc1` was tested, and the GTP binding activity was inconclusive: 107%. `Cn1cccc1-c1cc(C(=O)N/N=C/c2cccc(O)c2)[nH]n1` was tested, and the GTP binding activity was inactive: 96%. In the case of `CCOc1ccc(C(=O)N/N=C(/C)C2C(=O)c3ccccc3C2=O)cc1`, the GTP binding activity is reported as inconclusive: 92%. `CC(Sc1nnc2ccccn12)C(N)=O` (configuration not stated) was tested, and the GTP binding activity was inactive: 93%. `CN1C(=O)/C(=C2\SC(N)=NC2=O)c2ccccc21` was tested, and the GTP binding activity was inconclusive: 81%. For `O=C(CCN1CCc2ccccc2C(c2ccccc2)C1)c1ccc2c(c1)OCCO2` (configuration not stated), the GTP binding activity was inconclusive: 95%. In the case of `C=C1CSc2nc(=O)c3c(C)c(C)sc3n21`, the GTP binding activity is reported as inconclusive: 89%. With `CC1CCC2C(=O)N(c3ccc(NC4CCN(Cc5ccccc5)CC4)c([N+](=O)[O-])c3)C(=O)C2C1` (configuration not stated) the GTP binding activity was inconclusive: 90%. With `CCOC(=O)N1CCC(NC(=O)c2cc(C(=O)Nc3cccc(OC)c3)ccc2CO)CC1` the GTP binding activity was inconclusive: 101%. `Cc1cccc(NC(=O)CN2C(=O)N/C(=C/c3ccc(C)s3)C2=O)c1` was tested, and the GTP binding activity was inconclusive: 102%. In the case of `COc1ccc(NC(=O)Cc2c(SC)c3ccccc3n2Cc2ccccc2)cc1`, the GTP binding activity is reported as inconclusive: 102%. `CSc1nc2c(c(-c3ccc(O)cc3)c1C#N)CCC2` was tested, and the GTP binding activity was inconclusive: 89%. `O=c1[nH]c(N/N=C/c2ccc(O)cc2)nc2ccccc12` was tested, and the GTP binding activity was active: 76%. `COc1ccc(C2=Nc3ccc(Br)cc3C(c3ccccc3)N2CC(=O)NN)cc1` (configuration not stated) was tested, and the GTP binding activity was inconclusive: 94%. With `COc1ccc(/C=C/C(=O)OCC(=O)NC(=O)NC(C)(C)C)cc1` the GTP binding activity was inactive: 94%. `COc1ccccc1C(=O)Oc1ccc(N2C(=O)CCC2=O)cc1` was tested, and the GTP binding activity was inconclusive: 97%. With `O=S(=O)(Nc1ncccn1)c1ccc(NS(=O)(=O)c2cccc(Cl)c2Cl)cc1` the GTP binding activity was inactive: 96%. In the case of `NS(=O)(=O)c1ccc(CCNC(=O)c2ccc3ccccc3n2)cc1`, the GTP binding activity is reported as inactive: 95%. For `Cc1cc(C)c(C(=O)Cn2cnc3cc([N+](=O)[O-])ccc3c2=O)cc1C`, the GTP binding activity was inconclusive: 80%. In the case of `O=C(Nc1ccc(C(=O)O)cc1)/C(=C\c1ccco1)NC(=O)c1ccccc1`, the GTP binding activity is reported as inconclusive: 95%. In the case of `S=c1nc2ccccc2c2nc(-c3ccccc3)[nH]n12`, the GTP binding activity is reported as inconclusive: 94%. `Cc1ccc(C(=O)CC2(O)C(=O)N(C)c3ccccc32)s1` (configuration not stated) was tested, and the GTP binding activity was inactive: 100%. In the case of `COC(=O)c1ccccc1NC(=O)CN(Cc1ccccc1)S(C)(=O)=O`, the GTP binding activity is reported as inconclusive: 103%. With `CC(C)(C)C(=O)/C(C#N)=C/c1ccc(O)cc1` the GTP binding activity was inconclusive: 92%. For `CCOc1ccc(-n2c(C)nc3cc(C(=O)NCc4ccco4)ccc32)cc1`, the GTP binding activity was inconclusive: 96%. With `CCC1=NN2C(=N)/C(=C\c3cccn3-c3ccc(C)cc3C)C(=O)N=C2S1` the GTP binding activity was inconclusive: 88%. With `O=C1CN(C(=O)CSc2nc3ccccc3c(=O)n2Cc2ccc(F)cc2)c2ccccc2N1` the GTP binding activity was inactive: 102%. For `COC(=O)c1cccc(NC(=O)Nc2ccc(Cl)c(Cl)c2)c1`, the GTP binding activity was inconclusive: 108%. For `CCC(C)(C)C1CCC(=NNS(=O)(=O)c2ccc(C)c([N+](=O)[O-])c2)CC1` (configuration not stated), the GTP binding activity was inconclusive: 95%. `Cc1ccc(NC(=S)NC(=O)c2ccc(-c3ccccc3)cc2)c(C)c1` was tested, and the GTP binding activity was inactive: 100%. With `CNC(=O)c1ccsc1NC(=O)CCS(=O)(=O)c1ccccc1` the GTP binding activity was inconclusive: 97%. With `CC(=O)Nc1nc(SCCCc2ccccc2)n[nH]1` the GTP binding activity was inconclusive: 103%. In the case of `CCOC(=O)N1CCN(c2cc(=O)n(-c3ccc(Br)cc3)c(=O)[nH]2)CC1`, the GTP binding activity is reported as inconclusive: 104%. `C/C(=C\c1ccccc1)CN1CCN(c2ccccc2F)CC1` was tested, and the GTP binding activity was inconclusive: 95%. With `NC(=S)N=Nc1c(O)[nH]c2ccccc12` the GTP binding activity was inactive: 86%. `COc1cc(Cn2c(-c3nonc3N)nc3ccccc32)ccc1C` was tested, and the GTP binding activity was inconclusive: 92%. In the case of `CC(C)OC(=O)CSc1nc(-c2ccc(F)cc2)nc2ccc(F)cc12`, the GTP binding activity is reported as inconclusive: 106%. `CN(/N=C/c1ccco1)C1=NS(=O)(=O)c2ccccc21` was tested, and the GTP binding activity was active: 76%. For `CC(=O)NC12CC3CC(C1)CC(C(=O)OCC(=O)c1ccc4c(c1)OCCO4)(C3)C2`, the GTP binding activity was inactive: 102%. `Cc1c(Br)c([N+](=O)[O-])nn1CC(=O)Nc1c(C)n(C)n(-c2ccccc2)c1=O` was tested, and the GTP binding activity was inactive: 98%.
